24 molecules from patent publication US11618753B2 (priority 2018, dated 2023) can be followed below.

This test concerns MLKL phosphorylation, HT29-L23 human colorectal adenocarcinoma cells. In words: cells. The settings on record: read-out: pMLKL HCS Cell Assay (IC50, uM).
With `[2H]C([2H])([2H])Oc1ncc(-c2cc(CN3CC(F)(F)C3)c3c(N)ncnn23)cc1C(=O)N[C@@H]1CN(C(=O)C(C)C)C[C@@H]1F` [Example 1848, 5-(4-amino-5-((3,3-difluoroazetidin-1-yl)methyl)pyrrolo[2,1-f][1,2,4]triazin-7-yl)-N-((3R,4S)-4-fluoro-1-isobutyrylpyrrolidin-3-yl)-2-(methoxy-d3)nicotinamide], the IC50 was 0.00054 µM. For `COc1ncc(-c2cc(CN3CCC(F)(F)CC3)c3c(N)ncnn23)cc1C(=O)N[C@@H]1CN(C(=O)C2CCC(F)(F)C2)C[C@@H]1F` (stereo partly drawn) [Example 1623, 5-{4-amino-5-[(4,4-difluoropiperidin-1-yl)methyl]pyrrolo[2,1-f][1,2,4]triazin-7-yl}-N-[(3R,4S)-1-(3,3-difluorocyclopentanecarbonyl)-4-fluoropyrrolidin-3-yl]-2-methoxypyridine-3-carboxamide], the IC50 amounted to 0.0023 µM. The result for `COc1ncc(-c2cc(C(F)(F)F)c3c(N)ncnn23)cc1C(=O)N[C@@H]1CN(C(=O)OCC(F)(F)F)C[C@@H]1F` [Example 1437, 2,2,2-trifluoroethyl (3R,4S)-3-{5-[4-amino-5-(trifluoromethyl)pyrrolo[2,1-f][1,2,4]triazin-7-yl]-2-methoxypyridine-3-amido}-4-fluoropyrrolidine-1-carboxylate] reads 0.003 µM; that for `COc1ncc(-c2cc(CN3CCC(F)(F)CC3)c3c(N)ncnn23)cc1C(=O)N[C@@H]1CN(C(=O)CC(C(F)(F)F)C(F)(F)F)C[C@@H]1F` [Example 1249, 5-{4-amino-5-[(4,4-difluoropiperidin-1-yl)methyl]pyrrolo[2,1-f][1,2,4]triazin-7-yl}-N-[(3R,4S)-4-fluoro-1-[4,4,4-trifluoro-3-(trifluoromethyl)butanoyl]pyrrolidin-3-yl]-2-methoxypyridine-3-carboxamide], 0.0025 µM; that for `COc1ncc(-c2cc(C(F)(F)F)c3c(N)ncnn23)cc1C(=O)NCCCOc1ccc(F)cc1` [Example 113, 5-[4-amino-5-(trifluoromethyl)pyrrolo[2,1-f][1,2,4]triazin-7-yl]-N-[3-(4-fluorophenoxy)propyl]-2-methoxypyridine-3-carboxamide], 0.085 µM. As for `COc1ncc(-c2cc(CN3CCC(C(F)(F)F)C3)c3c(N)ncnn23)cc1C(=O)N[C@@H]1CN(C(=O)[C@@](C)(O)C(F)(F)F)C[C@@H]1F` (stereo partly drawn) [Example 1551, 5-(4-amino-5-{[3-(trifluoromethyl)pyrrolidin-1-yl]methyl}pyrrolo[2,1-f][1,2,4]triazin-7-yl)-N-[(3R,4S)-4-fluoro-1-[(2R)-3,3,3-trifluoro-2-hydroxy-2-methylpropanoyl]pyrrolidin-3-yl]-2-methoxypyridine-3-carboxamide], the IC50 was found to be 0.0012 µM. With `Nc1ncnn2c(-c3ccc(OC(F)F)c(C(=O)N[C@@H]4CN(C(=O)CC(O)(C(F)(F)F)C(F)(F)F)C[C@@H]4F)c3)cc(C(F)(F)F)c12` [Example 1088, 5-[4-amino-5-(trifluoromethyl)pyrrolo[2,1-f][1,2,4]triazin-7-yl]-2-(difluoromethoxy)-N-[(3R,4S)-4-fluoro-1-[4,4,4-trifluoro-3-hydroxy-3-(trifluoromethyl)butanoyl]pyrrolidin-3-yl]benzamide], the concentration for half-maximal inhibition (IC50) is 0.0098 µM.

With `CC(C)(O)C(=O)N1C[C@H](F)[C@H](NC(=O)c2cc(-c3cc(C(F)(F)F)c4c(N)ncnn34)cc(F)c2CF)C1` [Example 623, 5-[4-amino-5-(trifluoromethyl)pyrrolo[2,1-f][1,2,4]triazin-7-yl]-3-fluoro-N-[(3R,4S)-4-fluoro-1-(2-hydroxy-2-methylpropanoyl)pyrrolidin-3-yl]-2(fluoromethyl)benzamide], the IC50 turned out to be 0.01 µM. Under `CC(CC(=O)N1C[C@H](F)[C@H](NC(=O)c2cc(-c3cc(C(F)(F)F)c4c(N)ncnn34)ccc2CF)C1)C(F)(F)F` (stereo partly drawn) [Example 917, 5-[4-amino-5-(trifluoromethyl)pyrrolo[2,1-f][1,2,4]triazin-7-yl]-N-[(3R,4S)-4-fluoro-1-(4,4,4-trifluoro-3-methylbutanoyl)pyrrolidin-3-yl]-2-(fluoromethyl)benzamide] stands 0.0026 µM.

On to `COc1ncc(-c2cc(C(F)(F)F)c3c(N)ncnn23)cc1C(=O)NC1CN(CC2CC2(F)F)CC1F` (racemic) [Example 196, 5-[4-amino-5-(trifluoromethyl)pyrrolo[2,1-f][1,2,4]triazin-7-yl]-N-{1-[(2,2-difluorocyclopropyl)methyl]-4-fluoropyrrolidin-3-yl}-2-methoxypyridine-3-carboxamide], for which the IC50 came to 0.0055 µM.

`COc1ncc(-c2cc(C(F)(F)F)c3c(N)ncnn23)cc1C(=O)Nc1cnn(C(C)(C)C)c1` [Example 144, 5-[4-amino-5-(trifluoromethyl)pyrrolo[2,1-f][1,2,4]triazin-7-yl]-N-(1-tert-butyl-1H-pyrazol-4-yl)-2-methoxypyridine-3-carboxamide]: the IC50 was 0.162 µM. Under `Nc1ncnn2c(-c3cc(C(=O)N[C@@H]4CN(C(=O)CC(C(F)(F)F)C(F)(F)F)C[C@@H]4F)c(Cl)cc3F)cc(C(F)(F)F)c12` [Example 882, 5-[4-amino-5-(trifluoromethyl)pyrrolo[2,1-f][1,2,4]triazin-7-yl]-2-chloro-4-fluoro-N-[(3R,4S)-4-fluoro-1-[4,4,4-trifluoro-3-(trifluoromethyl)butanoyl]pyrrolidin-3-yl]benzamide] stands 0.005 µM; under `Nc1ncnn2c(-c3ccc(Cl)c(C(=O)N[C@@H]4CN(C(=O)CC(O)(C(F)(F)F)C(F)(F)F)C[C@@H]4F)c3)cc(CN3CCC(F)(F)CC3)c12` [Example 1139], 0.0012 µM; under `CCc1c(F)cc(-c2cc(C(F)(F)F)c3c(N)ncnn23)cc1C(=O)N[C@@H]1CN(C(=O)CC(F)(F)F)C[C@@H]1F` [Example 648, 5-[4-amino-5-(trifluoromethyl)pyrrolo[2,1-f][1,2,4]triazin-7-yl]-2-ethyl-3-fluoro-N-[(3R,4S)-4-fluoro-1-(3,3,3-trifluoropropanoyl)pyrrolidin-3-yl]benzamide], 0.021 µM. Under `Nc1ncnn2c(-c3cnc(C(F)(F)F)c(C(=O)Nc4cnn(Cc5ccccc5)c4)c3)cc(C(F)(F)F)c12` [Example 184, 5-[4-amino-5-(trifluoromethyl)pyrrolo[2,1-f][1,2,4]triazin-7-yl]-N-(1-benzyl-1H-pyrazol-4-yl)-2-(trifluoromethyl)pyridine-3-carboxamide] stands 0.0018 µM; under `COc1cc(F)c(-c2cc(C(F)(F)F)c3c(N)ncnn23)cc1C(=O)N[C@@H]1CN(C(=O)C2CCC(F)(F)C2)C[C@@H]1F` (stereo partly drawn) [Example 871, 5-[4-amino-5-(trifluoromethyl)pyrrolo[2,1-f][1,2,4]triazin-7-yl]-N-[(3R,4S)-1-(3,3-difluorocyclopentanecarbonyl)-4-fluoropyrrolidin-3-yl]-4-fluoro-2-methoxybenzamide], 0.0062 µM.

On to `Nc1ncnn2c(-c3cc(C(=O)N[C@@H]4CN(C(=O)CC(O)(C(F)(F)F)C(F)(F)F)C[C@@H]4F)c(F)cc3F)cc(C(F)(F)F)c12` [Example 784, 5-[4-amino-5-(trifluoromethyl)pyrrolo[2,1-f][1,2,4]triazin-7-yl]-2,4-difluoro-N-[(3R,4S)-4-fluoro-1-[4,4,4-trifluoro-3-hydroxy-3-(trifluoromethyl)butanoyl]pyrrolidin-3-yl]benzamide], for which the IC50 worked out at 0.0026 µM.

As for `COc1ncc(-c2cc(CN3CC4(COC4)C3)c3c(N)ncnn23)cc1C(=O)N[C@@H]1CN(C(=O)C2CC(F)(F)C2)C[C@@H]1F` [Example 496, 5-[4-amino-5-({2-oxa-6-azaspiro[3.3]heptan-6-yl}methyl)pyrrolo[2,1-f][1,2,4]triazin-7-yl]-N-[(3R,4S)-1-(3,3-difluorocyclobutanecarbonyl)-4-fluoropyrrolidin-3-yl]-2-methoxypyridine-3-carboxamide], the IC50 came to 0.013 µM. On to `Cc1ncc(-c2cc(C(F)(F)F)c3c(N)ncnn23)cc1C(=O)Nc1cnn(Cc2cc(OC(F)(F)F)ccc2F)c1` [Example 1775, 5-(4-amino-5-(trifluoromethyl)pyrrolo[2,1-f][1,2,4]triazin-7-yl)-N-(1-(2-fluoro-5-(trifluoromethoxy)benzyl)-1H-pyrazol-4-yl)-2-methylnicotinamide], for which the IC50 came out at 0.0099 µM.

For `CCOc1ccc(-c2cc(C(F)(F)F)c3c(N)ncnn23)cc1C(=O)N[C@@H]1CN(C(=O)c2ccccc2F)C[C@@H]1F` [Example 1099, 5-[4-amino-5-(trifluoromethyl)pyrrolo[2,1-f][1,2,4]triazin-7-yl]-2-ethoxy-N-[(3R,4S)-4-fluoro-1-(2-fluorobenzoyl)pyrrolidin-3-yl]benzamide], the IC50 was 0.021 µM. Consider `Nc1ncnn2c(-c3cccc(C(=O)Nc4cnn(CC5CC5)c4)c3)cc(C(F)(F)F)c12` [Example 75, 3-[4-amino-5-(trifluoromethyl)pyrrolo[2,1-f][1,2,4]triazin-7-yl]-N-[1-(cyclopropylmethyl)-1H-pyrazol-4-yl]benzamide], for which the IC50 turned out to be 0.081 µM. The result for `Nc1ncnn2c(-c3cccc(C(=O)N[C@@H]4CN(C(=O)c5ccc(F)cc5)C[C@@H]4F)c3)cc(CN3CC(F)(F)C3)c12` [Example 1173, 3-{4-amino-5-[(3,3-difluoroazetidin-1-yl)methyl]pyrrolo[2,1-f][1,2,4]triazin-7-yl}-N-[(3R,4S)-4-fluoro-1-(4-fluorobenzoyl)pyrrolidin-3-yl]benzamide] reads 0.00095 µM; that for `COc1ncc(-c2cc(C(F)(F)F)c3c(N)ncnn23)cc1C(=O)Nc1cn(CC(C)(O)C(F)(F)F)cn1` (stereo not drawn) [Example 1779, 5-(4-amino-5-(trifluoromethyl)pyrrolo[2,1-f][1,2,4]triazin-7-yl)-2-methoxy-N-(1-(3,3,3-trifluoro-2-hydroxy-2-methylpropyl)-1H-imidazol-4-yl)nicotinamide], 0.485 µM. On to `CC(CC(=O)N1C[C@H](F)[C@H](NC(=O)c2cc(-c3cc(C(F)(F)F)c4c(N)ncnn34)ccc2OC(F)F)C1)C(F)(F)F` (stereo partly drawn) [Example 1084, 5-[4-amino-5-(trifluoromethyl)pyrrolo[2,1-f][1,2,4]triazin-7-yl]-2-(difluoromethoxy)-N-[(3R,4S)-4-fluoro-1-(4,4,4-trifluoro-3-methylbutanoyl)pyrrolidin-3-yl]benzamide], for which the IC50 turned out to be 0.021 µM.
